Data as given in paper PMC10668032.
Some of the results follow. At the low end of the ranking the order means little.

target: SIX1 homeodomain (reference allele) (UniProt Q15475); test: universal protein binding microarray; settings: Universal all-10-mer PBM (8x60K, AMADID 030236), 300 nM GST-tagged protein, Alexa Fluor 488 anti-GST; buffer, salt, pH and temperature not stated; high values mean tight binding; most listed sequences are background and not binding sites; double strand, one strand shown

| Sequence | binding signal |
| --- | --- |
| GAGAACGA | -0.0402 E-score |
| CCTGTCCG | -0.0832 E-score |
| GTGGCCCA | -0.217 E-score |
| CATGGACG | 0.0317 E-score |
| TAATGCGA | -0.0292 E-score |
| AGCGATAT | 0.42 E-score |
| CGAACTTA | -0.304 E-score |
| CGTTGAGA | 0.0607 E-score |
| AAAACGAG | -0.181 E-score |
| CTATGAAA | 0.0478 E-score |
| AATATTCG | -0.0172 E-score |
| GCCAGCCA | -0.226 E-score |
| CGCGAGCG | -0.204 E-score |
| CTGCATTC | -0.216 E-score |
| ACCAGCCG | -0.0904 E-score |
| ACATGCCC | 0.029 E-score |
| CCCGCCCG | 0.123 E-score |
| AGCGGCCT | -0.258 E-score |
| GATTTAAC | -0.22 E-score |
| CGTCTGTC | 0.0124 E-score |
| CACGGACG | -0.0547 E-score |
| GATGCCCA | 0.145 E-score |
| CTTTATCA | -0.0954 E-score |
| GCCAACGC | -0.144 E-score |
| GTGTGCTA | 0.0518 E-score |

| Sequence | binding signal |
| --- | --- |
| AGGCAACA | -0.101 E-score |
| ATTAACAG | -0.068 E-score |
| CTAACGCC | -0.154 E-score |
| CAGCGGGA | -0.00724 E-score |
| TCTGGGAA | -0.191 E-score |
| ACTACCAA | -0.101 E-score |
| ACAAATCT | -0.259 E-score |
| GGACAGTA | 0.00783 E-score |
| GCCTGTTA | -0.0126 E-score |
| CTTGGGCA | 0.0194 E-score |
| AATCCGTG | 0.195 E-score |
| TCTGGTCA | -0.13 E-score |
| ATTCACTG | -0.3 E-score |
| CATCAGGG | -0.0117 E-score |
| GAAAACTA | -0.00681 E-score |
| AAAAATTA | -0.186 E-score |
| GGGCCGAC | -0.0964 E-score |
| TAATCTGA | 0.131 E-score |
| AAACAGGC | -0.284 E-score |
| AATAGATG | 0.101 E-score |
| CCTCAAGA | -0.179 E-score |
| CACTGGGA | -0.105 E-score |
| AGTTTTGG | -0.0742 E-score |
| GCCTTCTA | 0.0386 E-score |
| CAGTTAGA | -0.112 E-score |

| Sequence | binding signal |
| --- | --- |
| AGTGCTTG | -0.056 E-score |
| AATATTTG | -0.263 E-score |
| AGGGATCA | 0.449 E-score |
| ATGACCAT | -0.0591 E-score |
| CCGGGCAA | 0.0047 E-score |
| CCCTCCAC | -0.101 E-score |
| CGGTGGTC | -0.0322 E-score |
| CGTTCGAG | -0.102 E-score |
| GTACGTAA | -0.106 E-score |
| GTATACTA | 0.344 E-score |
| GTCTCGAA | 0.0087 E-score |
| CTTGTCTC | -0.116 E-score |
| ATCAATTA | 0.229 E-score |
| ACAGCTAA | -0.131 E-score |
| ACGCAGAG | -0.123 E-score |
| CCTGGCCA | -0.181 E-score |
| ACAAGAGT | -0.187 E-score |
| GGTCGCAC | -0.21 E-score |
| AGACACAG | 0.0101 E-score |
| CCTACGCC | 0.102 E-score |
| CAGGAAGG | -0.234 E-score |
| GACGCAAA | -0.165 E-score |
| AAAGCTCG | -0.168 E-score |
| GCAGCTTA | -0.0421 E-score |
| AGTAAAAG | 0.0311 E-score |

| Sequence | binding signal |
| --- | --- |
| CAGCCATA | 0.069 E-score |
| AACCCCAG | 0.0943 E-score |
| AAGCGATT | 0.0751 E-score |
| TGTCCCAA | -0.112 E-score |
| ACATAACC | -0.0915 E-score |
| AACGAGAT | 0.1 E-score |
| CAGACAAG | -0.12 E-score |
| CAGGGAGG | -0.117 E-score |
| ATGAAGGG | 0.065 E-score |
| GAGTACGC | -0.0824 E-score |
| TAGATTCA | -0.186 E-score |
| CAAGGTAC | -0.208 E-score |
| ATCGTTCG | 0.27 E-score |
| GCAATAAC | -0.0289 E-score |
| GCAGCGAC | -0.0365 E-score |
| AAACTCTC | -0.15 E-score |
| AACCGAAA | -0.149 E-score |
| CTTCGGCA | -0.12 E-score |
| CGAGTTAC | -0.0443 E-score |
| ACGGGGGC | -0.0511 E-score |
| GTGAATGA | -0.13 E-score |
| ATCATTAC | 0.295 E-score |
| CGTCTCAG | 0.161 E-score |
| CCTGACCG | -0.0564 E-score |
| AACTGACG | -0.352 E-score |

| Sequence | binding signal |
| --- | --- |
| GACCATAA | -0.063 E-score |
| CGTCTTTC | -0.252 E-score |
| CCCGACTA | 0.0848 E-score |
| CGCCTTTC | -0.253 E-score |
| ATGGCACG | -0.0871 E-score |
| ACCCGAAG | 0.124 E-score |
| CAGATACC | 0.433 E-score |
| ACGAAAGG | -0.087 E-score |
| ACATGTCC | -0.0849 E-score |
| CCATTCGA | -0.129 E-score |
| CGGTGCAG | -0.148 E-score |
| CCTATGAC | -0.065 E-score |
| CTCCGGAG | -0.064 E-score |
| ACAACCTC | -0.242 E-score |
| ATATAGCA | 0.248 E-score |
| ACGGAGGC | -0.127 E-score |
| AAACCTTA | 0.0446 E-score |
| CAACTGAG | 0.0954 E-score |
| CCTCAATC | -0.0694 E-score |
| ACCCGACA | 0.239 E-score |
| AGCTAAAT | -0.123 E-score |
| ATCGCCAA | 0.119 E-score |
| ATCAAAGG | 0.0975 E-score |
| GTTATTTA | -0.0939 E-score |
| CAGTTCGC | -0.268 E-score |

| Sequence | binding signal |
| --- | --- |
| CATATCGA | 0.417 E-score |
| GACGTCGC | -0.189 E-score |
| AACGCCTG | -0.123 E-score |
| GTCTCTTA | -0.134 E-score |
| CCGGCAGC | -0.0391 E-score |
| AATACACT | 0.0246 E-score |
| CTGAAAGA | -0.194 E-score |
| ATTTAAAA | -0.139 E-score |
| GACCTTAC | -0.199 E-score |
| AAGTCTCA | -0.0142 E-score |
| AATTGTTC | -0.119 E-score |
| TAGGGGCA | 0.141 E-score |
| CACAGGCC | -0.194 E-score |
| ATCTGCTA | 0.215 E-score |
| AAATCGCC | -0.222 E-score |
| GGATGTAC | -0.0609 E-score |
| CTTTGCCC | -0.254 E-score |
| ACTCGACG | 0.0124 E-score |
| GAAGAAAA | -0.296 E-score |
| CGGCAATC | -0.049 E-score |
| CAAAGTTG | -0.121 E-score |
| GTTCGCTA | -0.101 E-score |
| CACGTGAC | -0.0444 E-score |
| AAGTGATT | -0.121 E-score |
| TCGCGTAA | -0.152 E-score |

| Sequence | binding signal |
| --- | --- |
| TGTTTAAA | -0.2 E-score |
| AGCATACT | -0.157 E-score |
| ATCAGCAG | 0.124 E-score |
| GATCCTTA | 0.342 E-score |
| AACAAACA | -0.0485 E-score |
| AGTCGGCA | -0.0962 E-score |
| GGGGAAAA | -0.179 E-score |
| AGAAGCAC | -0.219 E-score |
| ACAAATTG | -0.183 E-score |
| AACGGAGC | -0.255 E-score |
| CAGTGCGC | -0.211 E-score |
| CGTATTTA | 0.169 E-score |
| ATTAACAA | -0.101 E-score |
| AATGCATC | 0.036 E-score |
| AAAGAAGG | -0.0956 E-score |
| GAGCTTAC | -0.0554 E-score |
| ACCCCTAG | 0.146 E-score |
| CGCGGCTA | -0.0643 E-score |
| CCAGTATC | 0.407 E-score |
| AAGTGCGT | -0.2 E-score |
| ATTATTAG | 0.0526 E-score |
| TAATTATA | 0.0877 E-score |
